The conditions of this data set: Gallus gallus; pH 2.2; 20 °C; GdnHCl; CD; None; HCl 10 mM; reversible: Unknown.

Data on one substance can be found in FireProtDB (doi:10.1002/prot.20782).

In the case of “Lysozyme C wild type (no sequence given)”, the denaturant m value came to 2.4 kcal/mol/M and the unfolding free energy turned out to be 5.71 kcal/mol.
